PubChem BioAssay AID360 (National Center for Advancing Translational Sciences (NCATS), 2006)
The campaign covered roughly 48,000 compounds. About 550 (1.1%) were called active. Inconclusive results (about 4%) are left out. Cut-off read from the data, not from the text of the source: active = potency below about 15 µM; inconclusive = mostly about 16 µM to 33 µM; inactive = weaker than that. The list shows a part of the results.

Biological target: Lysosomal acid glucosylceramidase (Homo sapiens) (UniProt P04062)
Sequence of UniProt P04062 (P04062 whole entry, looked up): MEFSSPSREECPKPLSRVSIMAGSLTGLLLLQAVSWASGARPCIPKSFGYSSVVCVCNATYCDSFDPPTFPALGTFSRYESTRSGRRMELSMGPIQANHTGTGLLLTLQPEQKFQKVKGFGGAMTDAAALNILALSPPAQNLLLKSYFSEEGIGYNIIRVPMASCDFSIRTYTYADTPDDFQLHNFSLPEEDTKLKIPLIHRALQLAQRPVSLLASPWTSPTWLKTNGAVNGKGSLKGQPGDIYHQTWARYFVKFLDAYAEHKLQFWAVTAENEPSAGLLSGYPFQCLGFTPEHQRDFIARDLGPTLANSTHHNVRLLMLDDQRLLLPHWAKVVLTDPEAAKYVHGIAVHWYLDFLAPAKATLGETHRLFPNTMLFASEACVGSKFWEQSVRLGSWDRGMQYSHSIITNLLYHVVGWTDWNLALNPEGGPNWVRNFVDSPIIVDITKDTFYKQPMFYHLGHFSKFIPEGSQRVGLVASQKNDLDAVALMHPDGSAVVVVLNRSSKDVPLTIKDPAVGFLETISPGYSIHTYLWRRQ
Assay: Glucocerebrosidase;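 note: the screen sought inhibitors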
Details: purified enzyme, resorufin glucoside fluorescence (screen aimed at inhibitors), 20 min
Summary of the method: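 Compounds titrated against 0.2 nM normal enzyme, 30 uM resorufin beta-D-glucopyranoside substrate, citrate/phosphate buffer with taurocholate and tween-20, pH 5.9. Reaction ran 20 min at room temperature; fluorescence (Ex 548/Em 600) gave AC50.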
Potency is the fitted concentration of half-maximal effect.

Potency, inactive:
CCOC(=O)Cc1nn(CCc2ccccn2)c(=O)c2ccccc12 > 76.9 µM, OC(CNCc1ccco1)Cn1c2ccccc2c2ccccc21 (stereo not drawn) > 76.9 µM, OC(COCc1ccco1)CN1CCN(C(c2ccccc2)c2ccccc2)CC1 (stereo not drawn) > 76.9 µM, CCn1c(CSc2nc3ccccc3s2)nnc1SCC(=O)c1ccc2c(c1)OCCO2, NC(=O)CCCC1=NS(=O)(=O)c2ccccc2N1 > 76.9 µM, CC(C)CNS(=O)(=O)c1ccc(S(=O)(=O)N2CCCN(Cc3ccccc3)C2)cc1 > 76.9 µM, Cc1cc(C(F)(F)F)c2c(C)nn(CCc3nn[nH]n3)c2n1 > 76.9 µM, O=C(O)C1CCCCC1C(=O)Nc1ccccc1F (stereo not drawn) > 76.9 µM, COc1ccc(NC(=O)CN(C2CCCCC2)S(C)(=O)=O)cc1OC > 76.9 µM, CCn1nnc(-c2ccccc2NS(=O)(=O)c2ccc(C(=O)OC)cc2)n1 > 76.9 µM, O=C(c1ccco1)N1CCN(C(=O)C2CCN(S(=O)(=O)c3cccs3)CC2)CC1 > 76.9 µM, COc1ccc(N2CCN(CCNC(=O)c3cccn4c(=O)c5ccc(Cl)cc5nc34)CC2)cc1 > 76.9 µM, COC(=O)c1[nH]c(C)c(/C(O)=C2\C(=O)C(=O)N(CCN3CCOCC3)C2c2cccs2)c1C (stereo not drawn) > 76.9 µM, CSc1ccccc1NC(=O)CCn1c(=O)sc2ccccc21 > 76.9 µM, Nc1nc(CSc2n[nH]c(-c3ccccc3)n2)nc(Nc2ccccc2)n1, O=C(O)CCN1CCOCC1 > 76.9 µM, Cc1cc(=O)oc2ccc(OC(=O)c3cccc(S(=O)(=O)N4CCOCC4)c3)cc12 > 76.9 µM, O=C(NCCc1ccccc1)c1ccc(=O)oc1 > 76.9 µM, CCCCCC1CC(CC(=O)O)C(=O)O1 (stereo not drawn) > 76.9 µM, CCC(C)C(NC(=O)c1ccc(Cl)cc1)C(=O)O (stereo not drawn) > 76.9 µM, CCOC(=O)C1C(=O)C=C(c2ccc(OC)cc2)CC1c1ccco1 (stereo not drawn) > 76.9 µM, O=S(=O)(Nc1ccc(N2CCCCC2)cc1)c1cccs1 > 76.9 µM, O=C(COc1ccccc1)Nc1nc2ccccc2[nH]1 > 76.9 µM, Nn1c(CSc2ccccn2)nc2ccccc2c1=O > 76.9 µM, CCOc1ccccc1NC(=O)CSc1nnc(-c2ccco2)n1Cc1ccco1 > 76.9 µM, CNC(=O)C1CC(=O)N(c2ccc(F)c(Cl)c2)C1 (stereo not drawn) > 76.9 µM, CCC(=O)N(CCc1ccccc1C)Cc1cc2cc3c(cc2[nH]c1=O)OCO3 > 76.9 µM, Cc1cc(C)n(-c2nc3ccccc3nc2N2CCN(C(=O)c3ccc(F)cc3)CC2)n1 > 76.9 µM, CCN(CC)C(=O)COc1ccc(Br)cc1Cl > 76.9 µM, O=C(NCCCn1ccnc1)c1cn(Cc2ccc(F)cc2)nn1 > 76.9 µM, O=C(CSc1nnc(-c2cccs2)o1)c1cccs1 > 76.9 µM, COc1ccc(NCc2ccc3c(c2)OCO3)cc1Cl > 76.9 µM, N#Cc1cc2ccccc2nc1SCC(=O)Nc1ccc(S(=O)(=O)N2CCCC2)cc1 > 76.9 µM, CCn1c(SCC(=O)n2c(C)c(C)c3ccccc32)nnc1-c1ccco1 > 76.9 µM, COCCN(C(=O)CNC(=O)c1cccs1)C(C(=O)NC1CCCCC1)c1ccco1 (stereo not drawn) > 76.9 µM, COc1ccccc1N(CC(=O)N1CCCCC1)S(=O)(=O)c1ccccc1 > 76.9 µM, O=C(NCc1ccco1)C(Cc1ccccc1)N1C(=O)C2C3C=CC(C3)C2C1=O (stereo not drawn) > 76.9 µM, CCOC(=O)CNC(=O)c1cnn2cccnc12 > 76.9 µM, CCCc1nnc(NC(=O)CN2C(=O)C3C4C=CC(C4)C3C2=O)s1 (stereo not drawn) > 76.9 µM, Cc1nnc(SCC(=O)c2c(N)n(C)c(=O)n(C)c2=O)n1Cc1ccccc1 > 76.9 µM, O=C(Cn1c(=O)n(Cc2ccc3c(c2)OCO3)c(=O)c2ccccc21)N1CCCc2ccccc21 > 76.9 µM, Cc1cc(C)n(C(=O)C2CCCN2S(=O)(=O)c2ccc(Cl)cc2)n1 (stereo not drawn), Cc1ccc(C(C)n2cc(C(=O)NCc3ccncc3)nn2)cc1 (stereo not drawn) > 76.9 µM, O=C(Nc1ccc2c(c1)oc1ccccc12)C1CC1 > 76.9 µM, O=C(CCCN1C(=O)c2ccccc2C1=O)NCCCN1CCOCC1 > 76.9 µM, Cc1ccc2nc(NC(=O)CN(C)S(=O)(=O)c3cccc4nsnc34)sc2c1 > 76.9 µM, COC(=O)c1ccc(Oc2nc(C)cc(Oc3ccccc3)n2)cc1 > 76.9 µM, Cc1ccc(CNc2ccc(N3CCOCC3)c(C(=O)O)c2)s1, Cc1nn(Cc2ccccc2Cl)c(C)c1N > 76.9 µM, CCOc1ccc(Cc2nc(C)c(CC(=O)N3CCOCC3)c(=O)[nH]2)cc1 > 76.9 µM, CCOC(=O)c1cc2c(=O)n3cccc(C)c3nc2n(CC2CCCO2)c1=NC(C)=O (stereo not drawn) > 76.9 µM, CCOC(=O)N1CCN(S(=O)(=O)c2ccc3c(c2)CCN3C(=O)C2CC2)CC1 > 76.9 µM, OC(c1ccccn1)c1c[nH]c2ccccc12 (stereo not drawn) > 76.9 µM, O=C(Cn1cnc2ccccc21)OCC(=O)N1CCc2ccccc2C1 > 76.9 µM, Cc1ccc(-n2c(=O)cc(NCc3cccnc3)[nH]c2=O)cc1 > 76.9 µM, COc1cc(NC(=O)c2ccco2)c(OC)cc1NC(=O)c1cc(OC)c(OC)c(OC)c1 > 76.9 µM, O=C(COC(=O)C1=COCCO1)NCCCc1ccccc1 > 76.9 µM, COc1cc2c(cc1OC)C1Cc3ccc(OC)c(OC)c3CN1CC2 (stereo not drawn) > 76.9 µM
